Results reported in PubChem BioAssay AID485360 (National Center for Advancing Translational Sciences (NCATS), 2010).
Among all 230,000 compounds or so, about 1,500 (0.65%) were called active. This list was built around the results that the source calls inconclusive (neither active nor inactive); the mix of calls is not that of the screen. Calls follow the shape of the dose curve; as a rule, active = well fitted inhibition curve with a large enough effect; inconclusive = small, poorly fitted or top-dose-only effect; inactive = no such curve, though single readings can be large or run the other way. Potencies beside an inconclusive call are fits to weak or partial responses and may not hold up.

Molecular target: Lethal(3)malignant brain tumor-like protein 1 (Homo sapiens) (UniProt Q9Y468)
UniProt Q9Y468, sequence (Q9Y468 whole entry, looked up): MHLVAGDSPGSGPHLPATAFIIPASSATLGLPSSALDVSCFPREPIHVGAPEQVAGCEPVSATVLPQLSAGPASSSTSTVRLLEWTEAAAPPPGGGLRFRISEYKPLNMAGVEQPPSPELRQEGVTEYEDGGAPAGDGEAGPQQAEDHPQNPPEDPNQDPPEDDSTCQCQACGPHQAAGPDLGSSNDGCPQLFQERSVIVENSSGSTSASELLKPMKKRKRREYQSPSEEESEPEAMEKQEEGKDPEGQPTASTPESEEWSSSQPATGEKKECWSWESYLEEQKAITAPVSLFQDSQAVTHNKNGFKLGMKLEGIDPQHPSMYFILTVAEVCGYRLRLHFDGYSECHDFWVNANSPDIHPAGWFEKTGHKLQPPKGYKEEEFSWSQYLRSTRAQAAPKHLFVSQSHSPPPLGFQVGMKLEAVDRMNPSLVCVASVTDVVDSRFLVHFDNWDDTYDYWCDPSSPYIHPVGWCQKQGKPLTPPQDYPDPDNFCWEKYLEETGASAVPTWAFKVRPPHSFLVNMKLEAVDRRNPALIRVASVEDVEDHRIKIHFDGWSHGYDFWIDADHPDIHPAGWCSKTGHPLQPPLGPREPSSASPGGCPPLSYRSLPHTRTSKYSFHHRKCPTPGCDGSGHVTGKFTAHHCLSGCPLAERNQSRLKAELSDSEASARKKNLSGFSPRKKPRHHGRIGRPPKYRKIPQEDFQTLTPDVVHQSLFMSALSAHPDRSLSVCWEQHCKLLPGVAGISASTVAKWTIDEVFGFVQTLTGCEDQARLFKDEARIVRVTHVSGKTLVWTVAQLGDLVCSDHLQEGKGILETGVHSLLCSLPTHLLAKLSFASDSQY
Test: qHTS Assay for the Inhibitors of L3MBTL1; also: nearly all actives have a fitted effect of over 60% in size
Details: AlphaScreen L3MBTL1–H3K9me1 peptide binding; activity, negative = inhibition: at 57.1 µM (top of the series)
Procedure, shortened: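 AlphaScreen proximity signal between nickel-chelate acceptor and streptavidin donor beads (final 10 ug/mL) reports binding of 50 nM L3MBTL1 to 75 nM biotin-H3 K9me1 peptide; complex incubated with compounds 30 min at room temperature; cefsulodin titration as control.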
% is scaled to controls: 0 for no effect and ±100 for the full control effect; potency is read from the fitted curve at half-maximal effect; tags tell the direction and shape of the fitted curve.

Row | Structure (SMILES) | Potency | activity, negative = inhibition
1 | COc1cccc(C(c2c(NC(=O)c3ccccc3)sc(C)c2C)N2CCN(C)CC2)c1 (stereo not given) | inconclusive: 4.47 µM [inhibitor, single point] | 
2 | O=C(NNC(=O)c1cccc(-n2cccc2)c1)c1ccc(F)cc1 | active: 22.4 µM | 
3 | COc1ccc(/C=C2\SC(N)=NC2=O)cc1Br | inconclusive: 39.8 µM [inhibitor, single point] | 
4 | Cc1c(Cl)cccc1NC(=S)N1CCN(c2ncccn2)CC1 | inconclusive: 0.708 µM [inhibitor, single point] | 
5 | O=S(=O)(Nc1cc(Sc2cccc3cccnc23)c(O)c2ccccc12)c1ccc(F)cc1 | active: 28.2 µM | 
6 | C=CCc1cccc2cc(C(=O)N3CCOCC3)c(=O)oc12 | inactive | 
7 | CCOC(=O)C1=CN(Cc2ccco2)S(=O)(=O)N(C)C1c1cccc(OC)c1 (stereo not given) | inconclusive: 31.6 µM [inhibitor, single point] | 
8 | Cc1sc2nc(SCC(=O)N3CCN(CCO)CC3)n(-c3ccccc3)c(=O)c2c1C | inconclusive: 2.51 µM [inhibitor, partial curve] | 
9 | Cc1ccc(/C=c2\sc3nc(-c4cccs4)nn3c2=O)o1 | inconclusive: 3.98 µM [inhibitor, partial curve, poor fit] | 
10 | CCc1ccc(-c2csc(NC(=O)C3=NN(c4ccccc4)C(=O)CC3)n2)cc1 | inactive | 
11 | CCN(CC)c1ccc(/C=C(\C#N)C(N)=S)cc1 | inconclusive: 7.94 µM [inhibitor, partial curve] | 
12 | O=C(N/N=C/C(Cl)=C/c1ccc([N+](=O)[O-])cc1)C(=O)Nc1ccccc1C(=O)O | inconclusive: 25.1 µM [inhibitor, single point] | 
13 | Cc1ccc(C(=O)OCC(=O)NC2CCCCC2)s1 | inconclusive: 35.5 µM [inhibitor, partial curve] | 
14 | Cc1nc(-c2ccc(S(=O)(=O)NCC3CCN(C(=O)OC(C)(C)C)CC3)s2)cs1 | inactive | 
15 | O=C(CN1CCCCC1)Nc1ccc(NC(=O)c2ccccc2Cl)cc1Cl | inactive | 
16 | NNc1nccc(Nc2ccccc2C(=O)O)n1 | inconclusive: 25.1 µM [inhibitor, single point] | 
17 | Cc1ccc(C)c(NC(=O)CN(C)C(=O)c2cc3ccccc3oc2=O)c1 | inactive | 
18 | CC(C)C(=O)OCC(=O)Nc1ccc(N=Nc2ccccc2)cc1 | inconclusive: 12.6 µM [inhibitor, partial curve] | 
19 | C=CCn1c(-c2cccc(S(=O)(=O)N(CC)CC)c2)n[nH]c1=S | inconclusive: 0.631 µM [inhibitor, full curve, poor fit] | 
20 | COc1ccccc1CNCC(O)Cn1c2ccccc2c2ccccc21 (stereo not given) | inactive | 
21 | CC(C)c1cc(=O)[nH]c(N2CCN(Cc3ccc4c(c3)OCO4)CC2)n1 |  | inactive: 1.34% [at 2.29 µM]
22 | COc1cc2c(C(=O)O)c(C)n(-c3ccccc3)c2c2ccccc12 | inconclusive: 20 µM [inhibitor, partial curve] | 
23 | NC(=O)c1c(NC(=O)COC(=O)c2ccc(O)c(Cl)c2)sc2c1CCCC2 | inconclusive: 17.8 µM [inhibitor, single point] | 

Row | Structure (SMILES) | Potency | activity, negative = inhibition
24 | CC(=O)NC(c1ccco1)c1ccc2cccnc2c1O (stereo not given) | inconclusive: 28.2 µM [inhibitor, single point] | 
25 | O=C(Nc1ccccc1-c1ccccc1)C1CCCN(c2ncccn2)C1 (stereo not given) | inactive | 
26 | O=c1nc(/C=C/c2ccc(O)c(O)c2)oc2ccccc12 | active: 28.2 µM | 
27 | CCn1c2ccccc2c2cc(Nc3cc(C)nc4ncnn34)ccc21 | inconclusive: 31.6 µM [inhibitor, single point] | 
28 | Cc1ccccc1N=C1c2cc([N+](=O)[O-])ccc2-c2ncccc21 | inconclusive: 39.8 µM [inhibitor, partial curve] | 
29 | CC(C)c1ccc(N(C(=O)c2csnn2)C(C(=O)NC(C)(C)C)c2cccnc2)cc1 (stereo not given) | inconclusive: 22.4 µM [inhibitor, partial curve, poor fit] | 
30 | Cc1csc(N2CCCC2=O)n1 | inconclusive: 0.112 µM [inhibitor, full curve, poor fit] | 
31 | Cc1oc(-c2cccs2)nc1CN1CCN(CCC(C)C)C(CCO)C1 (stereo not given) | inconclusive: 39.8 µM [inhibitor, single point] | 
32 | CCOC(=O)c1ccc(OCCOc2cccc(C)c2)cc1 | inactive | 
33 | O=C(Nc1nc(-c2ccccn2)cs1)c1cccc(-n2cnnn2)c1 | inconclusive: 6.31 µM [inhibitor, single point] | 
34 | COC(=O)C1CCN(C2=C(NS(=O)(=O)c3ccc(Cl)cc3)C(=O)c3ccccc3C2=O)CC1 | inconclusive: 31.6 µM [inhibitor, single point] | 
35 | CN(C)c1ccc(C(=S)NCc2ccco2)cc1 | inconclusive: 28.2 µM [inhibitor, single point] | 
36 | O=S(=O)(NCc1ccc(Cl)cc1)c1ccc(Cl)nc1 | inactive | 
37 | Oc1c(C(c2ccccc2)N2CCc3ccccc3C2)sc2ncnn12 (stereo not given) | inconclusive: 7.08 µM [inhibitor, single point] | 
38 | Cc1ccc(Cc2nnc(SCC(=O)Nc3ccccc3)n(N)c2=O)cc1 | inconclusive: 0.708 µM [inhibitor, single point] | 
39 | c1cc2c(cc1CNc1ccc(N3CCOCC3)cc1)OCO2 | inconclusive: 22.4 µM [inhibitor, single point] | 
40 | COc1cnc(-c2ccccn2)nc1Sc1ccc(F)cc1 | inconclusive: 11.2 µM [inhibitor, partial curve] | 
41 | CCOC(=O)c1c(-c2ccccc2)csc1NC(=O)CSc1nnnn1C | inconclusive: 39.8 µM [inhibitor, single point] | 
42 | O=c1[nH]c(=S)[nH]c2[nH]c(=S)[nH]c12 | inconclusive: 39.8 µM [inhibitor, single point] | 
43 | Cc1ccc(C(=O)OCc2nnc(-c3ccccc3)o2)s1 | inactive | 
44 | Cc1cc(-c2ccco2)n(CC(=O)O)n1 | inconclusive: 28.2 µM [inhibitor, single point] | 
45 | Nc1nn2c(-c3ccccc3)cc(=O)[nH]c2c1N=Nc1ccc(O)cc1 | inconclusive: 39.8 µM [inhibitor, partial curve, poor fit] | 
